# Source: the supplement of paper PMC10126150
# Values marked as one replicate rest on one cluster of the flow cell; about a third of the high ones do not repeat.
# Test system: ATP
# Assay: switch fluorescence ratio, 500 uM ATP over buffer (Cy3 cluster intensity, sum of 5 cycles each) (fold (ratio)); higher = stronger signal-on switching upon ATP binding; sequences stand for … in TCGTCGGCAGCGTCAGATGTGTATAAGAGACAGTTTTTTTTTTTTTTTTTTTTTTTTT…TC
# Details: aptamer strand: ATP DNA aptamer (quencher-CACCTGGGGGAGTATTGCGGAGGAAGG + anchor), 100 nM annealed; ATP concentration: 500 uM; one replicate
# Procedure, shortened: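 Five buffer/ATP imaging cycles were run on Cy3-labelled switching-strand clusters on a modified Illumina MiSeq flow-cell, with NaOH stripping and re-annealing between cycles. In each cycle, clusters annealed to 100 nM quencher-labelled ATP aptamer were imaged in selection buffer, then after 15 min with 500 uM ATP at 22 °C. Per cluster, the fluorescence ratio is summed target-cycle over summed buffer-cycle Cy3 intensity, averaged per switch-domain sequence. Only clusters within 100-1000 RFU were kept.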
# 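Also: ATP exposure 15 min at 22 °C before imaging.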
sequence,measurement,value
ATTAAGGCTT,switch fluorescence ratio,1.03
TGGCCGTTTG,switch fluorescence ratio,0.985
TCAAGCCAAG,switch fluorescence ratio,0.999
TCGGTACGTT,switch fluorescence ratio,0.95
GGGGAGCGCT,switch fluorescence ratio,1.05
ACTTTCGTGC,switch fluorescence ratio,1.01
AAGGAAAAGG,switch fluorescence ratio,0.994
AGTAAAGGAG,switch fluorescence ratio,1.01
CCTAACTGGT,switch fluorescence ratio,1.02
GGTTTTCGGA,switch fluorescence ratio,0.953
AATGCAGTGG,switch fluorescence ratio,0.947
CATTAACTCA,switch fluorescence ratio,1.08
GTAGCGCTCG,switch fluorescence ratio,1
AGTTTTT,switch fluorescence ratio,0.977
TCGCGGGACT,switch fluorescence ratio,2.28
CGTGGATATG,switch fluorescence ratio,0.994
CGTCTTACGC,switch fluorescence ratio,0.971
ATAATGCCG,switch fluorescence ratio,0.962
CCGTGTAGCT,switch fluorescence ratio,1.05
CAAGTAGCGT,switch fluorescence ratio,0.966
CCGTATGAGC,switch fluorescence ratio,1.1
ATATTACTCC,switch fluorescence ratio,1.25
GTGATGGATA,switch fluorescence ratio,1.04
GCCTATAAAG,switch fluorescence ratio,0.999
TTTCTTGCTT,switch fluorescence ratio,1.16
ATATATTGTC,switch fluorescence ratio,1.03
TAAGGGTTCC,switch fluorescence ratio,1.01
AAATAGTTCG,switch fluorescence ratio,0.974
CAAAGGTATT,switch fluorescence ratio,0.984
TGGCGGGAAT,switch fluorescence ratio,0.979
TCTTATTCTA,switch fluorescence ratio,1.01
GGCAGCTATG,switch fluorescence ratio,0.969
TGGGACCTAC,switch fluorescence ratio,1.23
GGGATCGGAA,switch fluorescence ratio,1.03
ATCCTATTGC,switch fluorescence ratio,0.98
GGGTTGTCAG,switch fluorescence ratio,0.957
TGTTTGGATC,switch fluorescence ratio,1.01
AAGTCTCATT,switch fluorescence ratio,0.974
GCTTCTCTAA,switch fluorescence ratio,1.01
TATCAAATAG,switch fluorescence ratio,1.03
TAATGAATAT,switch fluorescence ratio,1
TTCGTGACGC,switch fluorescence ratio,0.976
GAAGAGAAC,switch fluorescence ratio,0.962
ACAGCCGAAC,switch fluorescence ratio,1.08
CAATAAATTT,switch fluorescence ratio,0.97
GTACACCTCT,switch fluorescence ratio,0.999
TTGTTAGGAC,switch fluorescence ratio,0.986
GCGAACCTTG,switch fluorescence ratio,1.07
TGAATTGATT,switch fluorescence ratio,0.941
TGCTAATTTT,switch fluorescence ratio,0.975
TCAACCGTA,switch fluorescence ratio,1.03
CGGATTAAGG,switch fluorescence ratio,1.01
AGAATCTAAG,switch fluorescence ratio,1.02
TTTGGAGGCA,switch fluorescence ratio,0.97
TATATACGGC,switch fluorescence ratio,1.05
CTTTGGCGGA,switch fluorescence ratio,0.984
AACAGGATCT,switch fluorescence ratio,1.02
CGACCCTTCA,switch fluorescence ratio,1.57
AGATCCTTCC,switch fluorescence ratio,2.18
CCTCATCAAG,switch fluorescence ratio,2.7
AATGCGGACT,switch fluorescence ratio,1.02
TACCAATCCA,switch fluorescence ratio,1.39
TCTACCGCTC,switch fluorescence ratio,2.42
TCGACAAGCT,switch fluorescence ratio,1.07
GGGTCAGTG,switch fluorescence ratio,0.986
CATGCTATAT,switch fluorescence ratio,1.03
TTAGATGCGT,switch fluorescence ratio,0.973
CGTGTTTACA,switch fluorescence ratio,0.978
CGAACATCTT,switch fluorescence ratio,0.99
GCCGTTCTGA,switch fluorescence ratio,0.996
TATCCACCGA,switch fluorescence ratio,1.39
TTTCAATCCT,switch fluorescence ratio,1.08
TGAGGGGACT,switch fluorescence ratio,0.99
GGATGGGTG,switch fluorescence ratio,1.01
GCAGCACCTG,switch fluorescence ratio,1.08
CCTCTTTCTG,switch fluorescence ratio,1.02
TTCATTGATC,switch fluorescence ratio,1.04
TTTAGAACGG,switch fluorescence ratio,1.01
GGGTAGAGCG,switch fluorescence ratio,1.01
TCCCTTTGAT,switch fluorescence ratio,1
GAATGGTCTT,switch fluorescence ratio,1.03
CCTCGGAATT,switch fluorescence ratio,2.3
TTAGATCTCC,switch fluorescence ratio,1.03
AGAGTCTAGC,switch fluorescence ratio,0.879
GTGAATGAGG,switch fluorescence ratio,0.977
AATATGTTAA,switch fluorescence ratio,1.03
AAAACCGAAT,switch fluorescence ratio,1.02
CGCGCGTCT,switch fluorescence ratio,0.999
TGGCCGAGCT,switch fluorescence ratio,0.986
TTGAGTTGAG,switch fluorescence ratio,0.976
TCGGTGCGGG,switch fluorescence ratio,0.982
AAAGTATTCG,switch fluorescence ratio,0.978
GGTGTTGGT,switch fluorescence ratio,1.04
GAGAATAGAA,switch fluorescence ratio,0.99
TCTTCCTAGC,switch fluorescence ratio,1.92
TGACGTTGGC,switch fluorescence ratio,1.03
GGGTGCTTGC,switch fluorescence ratio,0.989
TTAGGGGACC,switch fluorescence ratio,0.955
AACAGGGATG,switch fluorescence ratio,1.04
CTGTGATTAC,switch fluorescence ratio,1.52
CATTATATAC,switch fluorescence ratio,1.15
TCGCTCGAAT,switch fluorescence ratio,1.01
GCCGACCAGA,switch fluorescence ratio,1.07
GATGAAGGTC,switch fluorescence ratio,0.994
TACGGTATG,switch fluorescence ratio,1.08
GCGCTCTGAC,switch fluorescence ratio,1.33
AGTCCCGTGG,switch fluorescence ratio,0.987
CTGGGTCAGA,switch fluorescence ratio,1
TGATACCCAA,switch fluorescence ratio,1.04
GGAATTCATG,switch fluorescence ratio,0.992
TAGCGGGACG,switch fluorescence ratio,1.07
CAACAAAATT,switch fluorescence ratio,1.01
TCGGTGGGCC,switch fluorescence ratio,1.02
TCGCCTTGGC,switch fluorescence ratio,0.955
CGATAACTCG,switch fluorescence ratio,0.998
CCGTATTGCA,switch fluorescence ratio,1.34
TAGCACCGGG,switch fluorescence ratio,1.11
ATGGGGCG,switch fluorescence ratio,1.03
CGCATTTATG,switch fluorescence ratio,0.985
GGTAGTCCCT,switch fluorescence ratio,1
CGATCCGGGG,switch fluorescence ratio,0.966
CTAGTCATTG,switch fluorescence ratio,0.949
CTGGAAGCGA,switch fluorescence ratio,2.52
TTACTTGGTC,switch fluorescence ratio,1.05
GCGTAGCGAC,switch fluorescence ratio,1.28
TCGGGAGGAG,switch fluorescence ratio,1.04
GTTGGCCATA,switch fluorescence ratio,1.02
GGGACGATG,switch fluorescence ratio,0.984
GACCGCCAAT,switch fluorescence ratio,2.9
ATGTACTTA,switch fluorescence ratio,1.12
ACGCTCTGGT,switch fluorescence ratio,1.28
TTTCGGCATA,switch fluorescence ratio,1.1
TGCGTTACAC,switch fluorescence ratio,1.06
GGTGCAGGGT,switch fluorescence ratio,0.976
CGTTCGTAAG,switch fluorescence ratio,1.1
TTGCTCAAGG,switch fluorescence ratio,1.01
AAACGCGAAC,switch fluorescence ratio,4.3
TGCGCAGATG,switch fluorescence ratio,0.958
GTCATC,switch fluorescence ratio,1.04
ACTCCGAGCA,switch fluorescence ratio,2.67
TGCGTTTTAG,switch fluorescence ratio,1.04
CGATCCGGAG,switch fluorescence ratio,1.1
TTTGGTTCG,switch fluorescence ratio,0.99
TAGAGATCA,switch fluorescence ratio,1.01
AACACATTCT,switch fluorescence ratio,0.998
GAGCTAGTTT,switch fluorescence ratio,1.08
CTCGTCACGG,switch fluorescence ratio,1.04
ATCTTAGTCT,switch fluorescence ratio,0.998
ATTCTTTTGA,switch fluorescence ratio,0.973
ATAAGGACCT,switch fluorescence ratio,1.15
CACTAAGCCA,switch fluorescence ratio,1.03
TACTCGATAT,switch fluorescence ratio,0.999
AAAGTGTGTG,switch fluorescence ratio,1.01
GTTTCGTTGG,switch fluorescence ratio,0.98
TGGGTGTGGC,switch fluorescence ratio,1
AATCGAGTTT,switch fluorescence ratio,1.06
GGTAGGTTTG,switch fluorescence ratio,0.978
CTGGCTGGAC,switch fluorescence ratio,0.988
TCGTTGAAGC,switch fluorescence ratio,0.938
GGGTTATAAT,switch fluorescence ratio,0.982
GAAAATCGTT,switch fluorescence ratio,0.989
TGTGTCGAGG,switch fluorescence ratio,0.981
TGTATTCGCG,switch fluorescence ratio,0.992
ACCCTGCTCA,switch fluorescence ratio,1.01
CGCCAATTGG,switch fluorescence ratio,0.96
GCCTCAGGGG,switch fluorescence ratio,3.71
GTGAGCGATC,switch fluorescence ratio,1.15
TGGGTGCTTT,switch fluorescence ratio,1.03
CGGATCAGCG,switch fluorescence ratio,1
CGTCTTCATT,switch fluorescence ratio,0.997
TCTGTTAGG,switch fluorescence ratio,0.969
AAGGCCGTGG,switch fluorescence ratio,0.938
TTCATTGTGT,switch fluorescence ratio,1.01
CGTTGCGAT,switch fluorescence ratio,1.04
TTACCTAA,switch fluorescence ratio,1.08
ACGAGTAGGG,switch fluorescence ratio,0.973
GGCCGTAAGT,switch fluorescence ratio,0.987
TGCGGTAAGC,switch fluorescence ratio,1
TGAACGCCAG,switch fluorescence ratio,1.08
TGTCTCGGCA,switch fluorescence ratio,1.06
AAGGGTTGCA,switch fluorescence ratio,1
GTCACATGG,switch fluorescence ratio,0.999
CAAATCCGAT,switch fluorescence ratio,0.973
GAAATCTATC,switch fluorescence ratio,1.03
GGAATATTTC,switch fluorescence ratio,0.977
CGTCCCATAG,switch fluorescence ratio,2.11
GCGGTGTGTG,switch fluorescence ratio,1
TATCCTATTG,switch fluorescence ratio,0.982
TAGGCATACC,switch fluorescence ratio,0.991
AGGGTTCACG,switch fluorescence ratio,1.02
TTTACAATTA,switch fluorescence ratio,1.08
TCTACTGGCC,switch fluorescence ratio,0.967
GGCGCTGTCA,switch fluorescence ratio,0.998
CGGATGCGTA,switch fluorescence ratio,1.04
GTTTGGTCTG,switch fluorescence ratio,0.993
TGTAAAGGG,switch fluorescence ratio,1.05
ATGTCTCTCC,switch fluorescence ratio,1.04
CATCAAGTTC,switch fluorescence ratio,0.951
CGGCGCAGT,switch fluorescence ratio,1.22
AGGTGCAACA,switch fluorescence ratio,1.01
CGCGGAGAAC,switch fluorescence ratio,1.08
